Some of the results follow. At the low end of the ranking the order means little. The protein was read in a cell extract, so binding may be indirect.

The target in the experiment is T1, HNF4alpha2 (COS-7 nuclear extract) (UniProt P41235).
T1 sequence: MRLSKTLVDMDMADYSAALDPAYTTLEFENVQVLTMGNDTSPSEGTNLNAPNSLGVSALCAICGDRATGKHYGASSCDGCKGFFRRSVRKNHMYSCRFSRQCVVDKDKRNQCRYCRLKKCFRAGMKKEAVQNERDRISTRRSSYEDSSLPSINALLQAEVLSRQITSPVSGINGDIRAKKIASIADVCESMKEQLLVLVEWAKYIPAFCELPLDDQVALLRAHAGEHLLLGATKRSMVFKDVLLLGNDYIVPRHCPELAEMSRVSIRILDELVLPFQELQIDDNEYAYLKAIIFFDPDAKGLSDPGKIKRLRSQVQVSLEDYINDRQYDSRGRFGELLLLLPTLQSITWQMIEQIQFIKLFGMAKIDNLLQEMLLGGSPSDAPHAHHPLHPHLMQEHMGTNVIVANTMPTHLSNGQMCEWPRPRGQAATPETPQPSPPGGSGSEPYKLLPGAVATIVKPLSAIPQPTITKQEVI
In words: protein-binding microarray. The following applies: COS-7 nuclear extract on double-stranded Agilent 4x180k PBM; binding buffer, salt, pH and temperature not given; high values mean tight binding; double strand, one strand shown; sequences stand for … in …GCCTAGGGAGATTAGAGTATCGGTCGA
For the sequence GGAGACTTCCAGGGAATAAAGAACTCTAAG, the binding signal (log2 normalized intensity) was -1.04.
Consider GTTGGGCAGAAGGTGTTTCAGATGGACCAA, for which the binding signal (log2 normalized intensity) was 1.81.
Consider GTCCCAGCCTAGGCCTTTGTGTAAACTCCT, for which the binding signal (log2 normalized intensity) was -0.407.
Consider ATCTGGGACAAGGGGGAGGAGAGTACTGTC, for which the binding signal (log2 normalized intensity) is -1.2.
The result for AGTGCCATGTAATCAAACTGAACTTTGAAA reads 3.76; that for AGAGCAGGACTGATATCCTGGGCTTTTAAT, -1.09.
Regarding AATTTAGCAAGACTGCAAAATAGACAAACA, the binding signal (log2 normalized intensity) is -1.18.
In the case of CTTGATAACAAAAATATCACAATCCTTAAG, the binding signal (log2 normalized intensity) is -1.03.
With TGCCCAGGGATTCCTGAAGATCGCAGACTT, the binding signal (log2 normalized intensity) is -0.953.
The same measure for TCTCTTATCACCCTGAACAGTGGCTGGCCA: 0.971; for TGAATACACATAATGTGCTTATCAGCAAGG: 0.718.
Take ATGCTGGTGTGTGATAAAACCCATGGACCT: the binding signal (log2 normalized intensity) came to 2.18.
With GCGAATATGTCAGGCTCAGGGACCCAGCGG, the binding signal (log2 normalized intensity) is -1.09.
For TTGCTGTGCACTTCTCTTTGAGTCCCAATC, the binding signal (log2 normalized intensity) worked out at 0.809.
The same measure for CTGACTCAGACTGAGGATGGGCCAAGGTTC: 1.98; for AATAATACTGACTGAGAAACCAAGATCCTA: -1.31; for AGTTGTCATTTGGGGCGGGCGGTCGGAGTC: 1.09.
TAAATGGACAGACACACCCTTCAGAGCTTG: the binding signal (log2 normalized intensity) is -1.16.
For the sequence CAGGGAACACACCATGTACAGAGAGCATTC, the binding signal (log2 normalized intensity) is -1.18.
The result for TTCCTTCCAAAGGTCACAGTAGGGAAAGTG reads 3.4; that for ATGCATGCTGTGTGTGTGTGTGTGTGTGTG, 3.31; that for CCTGGCCTCTGAGGTGTTAACCTGATGCTG, -0.881.
With ACCCCTTCTTGACCTGCGTAGCCCAAAGGT, the binding signal (log2 normalized intensity) came to 0.756.
Turning to AAGGTTGGTTTTTGGAGACAGGAGTAGTCA, the binding signal (log2 normalized intensity) is 1.3.
Consider GGATATCCTGGCAGTGTGGAAAAGCTGGCT, for which the binding signal (log2 normalized intensity) was -0.934.
In the case of GCTGAAAGTACTGGCCAGATGAGGTCAGCA, the binding signal (log2 normalized intensity) stood at 1.89.
Regarding TCTGCAACACTTTCTAAGGACACAACAGAA, the binding signal (log2 normalized intensity) was -0.92.
Regarding GTGATGACCCCATACTTCAGCAATTTCTTA, the binding signal (log2 normalized intensity) turned out to be 1.12.
The result for AAAAAAAAAAATACTCCTATCACCGAGGGA reads -1.09; that for CTCTCTCGTTTTTTTTTTCCCTGAGTCTGT, 2.52.
As for TCTCAGGTGAGCAGAGGGAGGACAAAGTTC, the binding signal (log2 normalized intensity) was 3.6.
For CAAACAGAACTGTTAACTTTGTACTCAATT, the binding signal (log2 normalized intensity) was 1.89.
The same measure for CCTATATAGTTGAGATTGTAACCGTAAATG: 1.55; for GCAAGACTCGTGAAAAGAGTGATCTTTGGG: 1.09.
The same measure for TGTCCTTTGTCCTGTACCTGGGAAGATAAG: 1.68; for TGCACTTATCTTAATACTTTGGAACTCAGT: 1.85; for AGGTCACACTGATACAGCATGGCCCAGGGA: -1.05.
On to TCTGATTAGAGGCTCAGGTAAAGGCATGCT, for which the binding signal (log2 normalized intensity) is -1.12.
The result for TACATTCTTAGAAGATAAAGTGTCTCCCTC reads 0.941; that for CCTCCTCCTGGGGGCTTTTGTTTAGGAAGA, -0.247; that for GGTAAACACTGAGCTTTCATCTAAGATCCT, -1.19.
GTCCAGTGGTGTCTTACCGGGATTTTGTTG: the binding signal (log2 normalized intensity) was found to be 1.64.
On to GGTGTGCCTCCTCCATCTCCTCCACCAGCT, for which the binding signal (log2 normalized intensity) was -1.04.
With CCTGCACACCTGCCTTTGATCAGGGACCTT, the binding signal (log2 normalized intensity) was 1.4.
In the case of GTCTATCTTAGCCATGTTCTCTAGAAACAG, the binding signal (log2 normalized intensity) was -0.621.
The result for TCAGGTCCACCAAGGTGGTGAAGATGTCCT reads 0.988; that for TTTTTGTGCCTCTTTGGTGAATTTTATGTC, 1.78.
Take TCCAGGGATGTCTTTTTCTGACCCATGGGT: the binding signal (log2 normalized intensity) came out at 2.32.
On to AGAAGACTTTGGGGGTAGGTGGAGTGAGGG, for which the binding signal (log2 normalized intensity) is -0.8.
Turning to CGAAAAAGGAAATATCTTCCCATAAAACCT, the binding signal (log2 normalized intensity) was -1.12.
With CAAAGGTCATTGGTATTGATAGCGCTTACT, the binding signal (log2 normalized intensity) is 2.77.
Take CCAGCAAAGAGGGTCAAAGCCCAGGAGAGC: the binding signal (log2 normalized intensity) is -1.06.
In the case of AAGAGGAATGCTTTGAGCCAGAATCTGTCA, the binding signal (log2 normalized intensity) was -1.05.
The same measure for TAAGGAAGGAAGGTGCTTATCAGAGCAAGA: -1.13; for CTGAGCCTCAGAACCATTTGTGAGGATGGG: -0.528.
As to CTTTCATGAATAAATGACATAGTGACATTT, the binding signal (log2 normalized intensity) came out at 1.65.
As for TGAACAGAATAGAGGCCTTTGTGCTGACTA, the binding signal (log2 normalized intensity) was -0.751.
On to TTAAAAAAAAAAAAAACTATCAAACTAGTG, for which the binding signal (log2 normalized intensity) is -1.27.
The same measure for CAGAGCCGCACCCAGCTTTCATCTCGGCTG: -1.12.
Regarding TAAGTTTAAGTCCAGAAAAGACCAAAAAGG, the binding signal (log2 normalized intensity) came out at 0.39.
Take ATTGTCAATACCCTGTTATTAGTCCAAGAG: the binding signal (log2 normalized intensity) came out at 1.46.
For the sequence CGTCCGTCACCCCTTTCTTTGATTAGGAAA, the binding signal (log2 normalized intensity) was found to be 1.54.
With TCTTTCTATATTTGTAGGCAGCTAGGCAGG, the binding signal (log2 normalized intensity) stood at 1.58.
The same measure for CTAAGTGGCTCGACAACGATTTGGGAAATG: -0.828.
In the case of GTTGAATGATGGCGAGTGTGCAATTAGAGC, the binding signal (log2 normalized intensity) is 0.767.
The same measure for TTGTGTTTGTCTTAGGGGGTCTGGTTTCTA: 1.58; for GAGCAGTCTTGAGCGCAAATGATCAAAGGT: 0.645.
Take CCCCTTCTGTTTCCAGAAATCTGACCTCTG: the binding signal (log2 normalized intensity) came out at 4.34.
Regarding AGCTGGAGGGGGACTGGAAGGGAGAGATAA, the binding signal (log2 normalized intensity) was -1.19.
The same measure for GTTGCATGCAACCTTTGTCCTCATTGAGCC: 4.96; for CCAGAAATCAACCTTTGATCGTTTGCATGC: 4.7; for TGCTCTCTCCAGGGGAGGGTGACCAGATTA: 0.281.
As for GTCCAAAGGCAGTCTGGAAGTTGAATTCCT, the binding signal (log2 normalized intensity) was -0.0664.

The values are drawn from PMC10726135.
